Reference: the RNAGym collection of RNA variant scans (doi:10.7554/elife.90254)
The source gives no read counts; variants with many changes may rest on few reads.

B1: LINE1-mini (parent)
chain: GGCAGAGCUCAACACAGCGUGGCAAAGUGGCUGUGGCUAGACUGCC

Variants of: B1
Experiment: self-cleavage, relative activity (ratio to wild type); higher = more cleavage; in vitro, sequencing; the parent is a self-cleaving ribozyme

| Variant | self-cleavage |
| --- | --- |
| GGCAGAGCUCCACAUAGGGUGGCAAAGUGGCUGUGACUAGGCUCCC | 0.01 |
| GGCAGAGCUCCACAUAGCGUGGCAAAGUGGAUGUGGCUAGACUGCC | 0.01 |
| GGCAGAGCUCCACAUAGCGUGGCAAAGUGGCUGUGGAUAGACUGCC | 0.03 |
| GGCAGAGCUCCACAUAGCGUAGGAAAGUGGCAGUGGCUAGACUGCC | 0 |
| GGCAGAGCUCCACAUAGCGUGACAAAGUGGAUGUGGCUAGACUGCC | 0 |
| GGCAGAGCUCCACACAGAAUGGCAAAGUGGCUGUGGCUAGUCUACC | 0 |
| GGCAGAGCUCCACACAGAGUGAAAAAAUGGCUGUGGCUAGACUGCC | 0.01 |
| GGCAGAGCUCCACACAGAGUGACAAAGGGGCUGUGGCUAGACUGCC | 0.02 |
| GGCAGAGCUCCACACAGAGUGGCAAAGGGGCUGUGGCUAGACUGCC | 0.01 |
| GGCAGAGCUCCACACAGAGUGGCAAAGUGGCUGUGGCCAGACUGCC | 0.03 |
| GGCAGAGCUCCACACAGGGUGGCAAAGUGGCGGUGGCUAGACUGCC | 0.02 |
| GGCAGAGCUCCACACAGUGUGGCACAGUGGUAGUGGCUCGACUGCA | 0 |
| GGCAGAGCUCCACACAGUGUGGCAAAGUGGCUGUGGUUAGACUGCC | 0.02 |
| GGCAGAGCUCCACACAGUUUGGCAAAGUGGCUGUGGCUAGGCUGUC | 0.05 |
| GGCAGAGCUCCACACAGUGUGGCAAAGUCGCUGUGGCUAGACUGGC | 0.02 |
| GGCAGAGCUCCACACAGUGUGGCAAAGUGGCUGUAGCUAGACUGCC | 0.06 |
| GGCAGAGCUCCACACAGCGUGGAUAAGUGGCUAUGGCUAGACUGCC | 0.01 |
| GGCAGAGCUCCACACAGCGUGGAAAAGUGGGUGUGGCUAGACUGCC | 0.01 |
| GGCAGAGCUCCACACAGCGUGGGAAAGUGGCUGUGGCUAGACUCCC | 0.04 |

| Variant | self-cleavage |
| --- | --- |
| GGCAGAGCUCCACACAGCGUGGUAAAGUGGCUGUGGCUAGAAUGCC | 0.01 |
| GGCAGAGCUCCACACAGCGUGGUAAAGUGGCUGUGGCGAGACUGCC | 0 |
| GGCAGAGCUCCACACAGCGUGGCAAAGUGGGAGUGGCUAAACUGCC | 0.02 |
| GGCAGAGCUCCACACAGCGUGGCAAAGUGGCUGUGGAUGGACUGCC | 0.03 |
| GGCAGAGCUCCACACAGCGUGGCAAAGUGGCUGUGGUUUUACUGCC | 0 |
| GGCAGAGCUCCACACAACGUGGCAAAGUUGCUGUGGCUGUACUGCC | 0 |
| GGCAGAGCUCCACACAACGGGGCAAAGUGGUUGUGGCAAGACUGCU | 0 |
| GGCAGAGCUCCACACACCGUGGCAAGGAGGCCGUGGUUAGAUUGCC | 0 |
| GGCAGAGCUCCACACACGGUGGCAAAGUGGCUGUGACUAGACUGCC | 0.02 |
| GGCAGAGCUCCACACACCGUGGAAAAGUGGCUGUGGCUAGACUGCC | 0.01 |
| GGCAGAGCUCCACACACCAUGGCAAAGUGGCUGUGCCUAGACUGCC | 0.01 |
| GGCAGAGCUCCACACACCCUGGCAAAGUGGCUGUGGCUAGACUGCC | 0.03 |
| GGCAGAGCUCCACACACCGUUGCAAAGUGGCUGUGGCUAGACUGCC | 0.02 |
| GGCAGAGCUCCACACACCGUGGCAAAGUGGCUGUGGCUAUACUGCC | 0.02 |
| GGCAGAGCUCCACACAUGGUGGCAAAGUGGCGGUGGCUAGAAUGCC | 0 |
| GGCAGAGCUCCACACAUCCUGGCAAAUUGGGUGUGGCUAGACUGCC | 0.02 |
| GGCAGAGCUCCACACAUCGGGGCAAAGUGGCUGUGGCUAGACUUCC | 0.05 |
| GGCAGAGCUCCACACAGCAUGUCAAAGUGGCUGUGGCUAGACUGCC | 0.14 |
| GGCAGAGCUCCACACAGCAUGGCAAAGUGGCGGUGGCUAGACUGCC | 0.03 |

| Variant | self-cleavage |
| --- | --- |
| GGCAGAGCUCCACACAGCCUGGCAAUGUGGCUGUGGCUAGACUGCC | 0.11 |
| GGCAGAGCUCCACACAGCCUGGCAAAGUGGCUUUGGCUAGACUGCC | 0 |
| GGCAGAGCUCCACACAGCUUGGCAAAGUGGCUGUGGGUAGACUGAC | 0.01 |
| GGCAGAGCUCCACACAGCUUGGCAAAUUGGCUCUGGCCAGACUGCC | 0.02 |
| GGCAGAGCUCCACACAGCUUGGCAAAGUGGCUGUGGCUAAAAUGCC | 0.01 |
| GGCAGAGCUCCACACAGCUAGGCAAAGUGGCUGUGGCUAGACUGCC | 0.03 |
| GGCAGAGCUCCACACAGCGUAGCAAAGUGGCUGUGGCUAGACUGUC | 0.05 |
| GGCAGAGCUCCACACAGCGUAGCAAAUUGGCUGUGGAUAGACUGCC | 0.01 |
| GGCAGAGCUCCACACAGCGUAGCAAAGUGGCUUUGGCUAGACUGCC | 0.01 |
| GGCAGAGCUCCACACAGCGUCGAAAAGUGCCAGUGGCUAGAAUGCC | 0 |
| GGCAGAGCUCCACACAGCGUCGCAAAGUGGGUGUGGCUAGAGUGCC | 0.01 |
| GGCAGAGCUCCACACAGCGUCGCAAAGUGGCUGGGGCUAUACUGCC | 0 |
| GGCAGAGCUCCACACAGCGUCGCAAAGUGGCUGUGGCCAGACUGCC | 0.15 |
| GGCAGAGCUCCACACAGCGUUGCAAUGUGGCUGUGGCUAGACUGGC | 0.01 |
| GGCAGAGCUCCACACAGCGUUGCAAAGUGGCUGUGGCUAGCCAGCA | 0 |
| GGCAGAGCUCCACACAGCGUUGCAAAGAGGCGGUGACUAGACUGCC | 0.01 |
| GGCAGAGCUCCACACAGCGUUGCAAAGUGGCAGUGGCUAUACUGCC | 0.01 |
| GGCAGAGCUCCACACAGCGUUGCAAAGUGGCGGAGGCUAGACUGCC | 0.06 |
